Measured values from the supplement of paper PMC3334620.
Whole data set: some 33,000 sequences, median “E-score (-0.5 to 0.5)” near -0.035, cut for the highest 2% near 0.34. The list shows a part of the results.

Each sequence was assayed against T1, Mot3 (UniProt P54785) (assay: PBM E-score (8-mer binding enrichment) (E-score (-0.5 to 0.5)); higher = stronger / more preferred TF binding; most listed sequences are background and not binding sites). Details: protein concentration: 200 nM; construct: GST-full length.
T1 sequence: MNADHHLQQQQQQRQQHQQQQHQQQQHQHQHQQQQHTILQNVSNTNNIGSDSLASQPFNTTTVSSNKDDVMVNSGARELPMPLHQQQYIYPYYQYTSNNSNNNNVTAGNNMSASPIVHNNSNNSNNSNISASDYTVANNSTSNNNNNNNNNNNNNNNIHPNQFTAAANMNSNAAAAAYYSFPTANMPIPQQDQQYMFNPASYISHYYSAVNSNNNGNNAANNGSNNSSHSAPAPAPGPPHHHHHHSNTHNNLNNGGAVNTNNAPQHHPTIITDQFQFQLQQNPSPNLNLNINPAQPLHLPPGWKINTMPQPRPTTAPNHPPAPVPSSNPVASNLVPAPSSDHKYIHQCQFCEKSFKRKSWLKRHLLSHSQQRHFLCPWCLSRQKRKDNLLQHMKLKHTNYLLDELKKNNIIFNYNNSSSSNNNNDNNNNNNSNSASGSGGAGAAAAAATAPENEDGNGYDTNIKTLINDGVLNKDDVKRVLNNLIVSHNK
Method in brief: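 GST-tagged yeast TFs (full-length or DNA-binding domain) were made by PURExpress in vitro transcription/translation and applied at about 100-200 nM to universal all-10-mer Agilent arrays. The arrays were made double-stranded by primer extension, on fresh or once-stripped slides. Bound protein was detected with fluorescent anti-GST, and scans were normalised with masliner. Each ungapped eight-base word, pooled with its reverse complement, received an E-score (modified Wilcoxon-Mann-Whitney statistic) from the Universal PBM Analysis Suite.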

Sequence	PBM E-score
AGCAGAGG	-0.27
ACGTTCTC	0.0807
ATCTGAGG	-0.123
CGACCCAA	-0.154
GAATTGTC	0.0275
AGGGGCGA	-0.274
TTATTCAA	0.145
GTGGTTTA	0.0399
CAGAGCGA	-0.234
AACCCTCG	0.0231
CCTCGCAA	-0.138
ACATCTAA	0.094
GCGCGCCA	-0.118
GCATACGC	0.0475
AGGGTCCA	-0.297
AGTCAAAT	0.00588
ATGATAGG	-0.0315
AGCAGTAA	-0.178
ACCTCGTG	0.0532
CTCTAATA	0.15
AACAGCCA	0.153
ATTATGTG	0.165
ACTTATTG	-0.0335
AAGGGTTC	-0.142
AAACTGAA	0.0399

Sequence	PBM E-score
ACGACCGG	-0.236
CCTTTACA	0.392
CCACGATA	-0.107
CGAGTTCA	0.111
AAGGATAC	-0.00777
GGGCCTAA	-0.0056
ATGTCGTC	0.102
ACTTCGCC	-0.076
AGCGAGAG	-0.117
ATAGACGG	-0.107
CTGACCAG	-0.174
TAACTGTA	0.0391
AGTTACGC	0.0795
GCCACGAC	-0.0741
AGTAGAGG	-0.103
CTCTGTTA	0.0752
GTGTGGAA	0.135
CCATGGAA	0.0211
AATGACCT	-0.0034
ATTGGAAC	-0.0261
GCACTGTA	0.0512
TAGTATCA	0.0719
GAAAGGAA	0.29
AGGTGATG	0.0871
CTACATCA	0.112

Sequence	PBM E-score
ATTGCGCG	0.106
CATAAGGC	0.0875
ATCATTTA	0.187
GACACGGC	0.173
GGAAGCAA	-0.00737
ACCTAATC	0.114
AAAGATAT	-0.00043
GAAACATC	0.00945
CACGCCCG	-0.0362
CCAGATTC	-0.128
TCGCAGCA	-0.0628
GAATGCCC	-0.255
ATGTGGAG	-0.101
TCGCATAA	0.012
GTGATACA	0.215
AGATTGCC	0.211
CGACAATA	0.0483
CATCCGTC	-0.101
GTCCTTCA	-0.034
CTCCCAAG	-0.165
ATTAGCCC	-0.179
ATGCCTGA	0.376
AAGTTTAA	0.068
AAAGGGTT	-0.0597
CGAACGTC	-0.214

Sequence	PBM E-score
ACATACAA	0.221
GACCTGCA	-0.0447
CTCACGTA	0.0428
AATACAGT	0.143
AACGAGAC	-0.11
CATACAAA	0.203
AGGTGCTG	0.135
AAAATTAG	0.0165
AAACCCTG	0.0467
TACCCCAA	-0.217
CCCCAGCG	-0.132
CACTCGGG	-0.269
ATTGGCGA	-0.111
GTTTAGGA	0.0731
AAGGGTCT	-0.234
ACCAGTAG	-0.0459
CTTGGATA	-0.039
AATCACCT	0.0059
AGAGCGGA	-0.0946
CATGGTTA	0.157
CGAACCCA	-0.0664
AAACTCTC	-0.194
AGCCTCAT	-0.0907
ATCTCATC	-0.191
AAGGACTT	-0.132

Sequence	PBM E-score
CGCCACCG	-0.331
CAAATCCA	-0.143
CTGTACGA	0.0692
AGTGTGAG	-0.236
ATAACCCG	-0.189
CATTACGA	0.111
AACGATAA	-0.0699
CCTGGGAA	-0.0224
CCGATTCG	-0.0752
ACGGTCAA	0.05
CGTCATCC	0.0205
AAAGGATC	0.118
CCTGATCA	-0.0775
CCTCTAAA	0.0994
AGCATCTC	-0.189
ACAATGCC	0.24
GCCTTGCA	-0.00236
ATAAAGGG	-0.102
AGCAGAGC	-0.0971
AGGACGTC	-0.0355
GTCCCTAA	-0.0747
CTCGCAAA	0.0288
GACTGTAC	0.0169
CACCATCG	-0.0846
ACCCTCTC	-0.197

Sequence	PBM E-score
GCACAAAA	0.143
AAAAACCA	0.0205
GACGACGA	-0.222
GGAAATCC	-0.0837
CATGTGAG	0.0531
GCGATAAC	-0.0154
GGTATTAA	0.229
AGACTGAG	-0.132
CGGACCAC	-0.159
CATTTGTA	0.167
AAAGTTAC	0.145
AGGGGCAT	0.0444
TACAAATA	0.161
AAAGACAT	0.0698
AGCCCGCT	-0.341
CGACCATA	-0.252
ATACGTCG	0.0546
CGAACTAA	0.031
CGCCTGCA	0.23
ACGGACTG	-0.0723
AACTAGGG	-0.105
ACAAAAAA	0.259
AAACAAAA	0.127
TACCTAGA	0.252
CCCGCAAA	0.0614

Sequence	PBM E-score
CAGGAAAA	0.427
CGCGAGAA	-0.142
CTCGCCTA	-0.183
CACTGTCA	-0.0683
CCGTATGC	-0.325
AACAGATG	0.02
AGCCCTCG	-0.13
CAGTTAAA	0.0473
TTCTTAAA	-0.0819
AACCTAAG	0.139
GCGCGACC	-0.0107
GTCCATGA	-0.0639
CAGAAGGA	0.00219
AGGGCGAC	-0.207
AACCGCGA	0.117
TCACCGCA	-0.149
CCAGCTGG	-0.0228
CGTCATAG	-0.092
GAACATAA	0.0111
GGGATGAC	-0.151
AACTTGGA	-0.0439
AAGCCGAC	-0.119
